# From the supplement of paper PMC4166925
# ± gives the standard deviation of the averaged measurements. Over roughly 33,000 sequences, “E-score (dimensionless, -0.5 to 0.5)” has its median near -0.046; the highest 2% begin near 0.36. The list shows a part of the results.
# Test system: T1, SpTbr T-box DNA-binding domain (GST fusion)
# T1 sequence: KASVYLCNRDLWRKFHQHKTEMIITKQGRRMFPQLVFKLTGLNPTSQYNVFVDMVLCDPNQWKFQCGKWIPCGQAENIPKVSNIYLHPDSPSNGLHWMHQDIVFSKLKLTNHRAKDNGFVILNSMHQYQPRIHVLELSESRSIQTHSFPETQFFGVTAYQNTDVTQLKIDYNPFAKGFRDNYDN
# Experiment: PBM E-score of 8-mer (E-score (dimensionless, -0.5 to 0.5)); Tbr is Tbrain of the sea star Patiria miniata (Pm) or the sea urchin Strongylocentrotus purpuratus (Sp); higher = stronger binding preference; most listed sequences are background and not binding sites
# Details: the construct has about 5 more residues each side
# Outline: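 GST-fused Tbr T-box DNA-binding domains (the whole T-box plus about five flanking residues) were expressed in BL21 E. coli at 20 °C and purified by glutathione affinity chromatography. Universal Agilent oligonucleotide arrays were made double-stranded by primer extension, incubated with 200 nM protein in PBS (pH 7.5), then scanned and quantified. Every ungapped 8-mer was scored from probe intensities. The Universal PBM Analysis Suite gave each word an enrichment E-score, averaged over duplicate arrays.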
row,Sequence,PBM E-score of 8-mer
1,ACCAGTCT,-0.181 ± 0.035
2,GTGACGCA,0.23 ± 0.024
3,AAGTATAC,0.0351 ± 0.056
4,ACGTCTGG,-0.159 ± 0.07
5,ACTCCCCC,-0.366 ± 0.059
6,ACTTGAAC,-0.149 ± 0.042
7,CGTCTCTC,-0.043 ± 0.068
8,ACCGGTTG,-0.0626 ± 0.069
9,ACTCTTCA,0.0691 ± 0.005
10,AACTCTTG,-0.0545 ± 0.035
11,AGTCTGGG,-0.278 ± 0.029
12,AACACGGC,0.118 ± 0.0051
13,AGCAATGC,-0.203 ± 0.084
14,AGATGGGA,-0.0351 ± 0.082
15,AGTCGATA,0.136 ± 0.052
16,AGACAGAT,-0.111 ± 0.05
17,ATAAGGCC,-0.269 ± 0.14
18,ATTCCTAA,-0.233 ± 0.037
19,CTCTGCAA,-0.207 ± 0.013
20,TGTCATAA,0.288 ± 0.022
21,GCGACTCC,0.196 ± 0.027
22,GATCAAAA,-0.0389 ± 0.074

row,Sequence,PBM E-score of 8-mer
1,AAACGAAG,-0.156 ± 0.043
2,CGACGTTC,-0.173 ± 0.011
3,GTGCGCCA,0.0213 ± 0.017
4,GTAAAAAA,0.0079 ± 0.032
5,TGGCTAAA,-0.277 ± 0.036
6,ACAGTGCG,0.307 ± 0.029
7,GAGCGATA,0.115 ± 0.016
8,ACTCCTCG,0.178 ± 0.052
9,GCGCACAA,-0.062 ± 0.038
10,AAGAATAT,-0.234 ± 0.038
11,CTAGTTGC,0.0916 ± 0.087
12,AGTCGTTA,0.0721 ± 0.0013
13,ACGGTGTA,0.137 ± 0.026
14,CGTCCCCC,-0.245 ± 0.065
15,ATAATCGG,-0.0579 ± 0.056
16,CCTTGTTA,0.148 ± 0.072
17,ATACCATC,-0.236 ± 0.017
18,ATCTGATG,-0.00345 ± 0.016
19,GCGGAAAC,0.14 ± 0.041
20,GTATCTAA,-0.18017 ± 0.00014
21,AGGCAGTA,-0.169 ± 0.045
22,TAACGAAA,-0.0251 ± 0.0043

row,Sequence,PBM E-score of 8-mer
1,GAACATAC,-0.0451 ± 0.0094
2,ACAAAAAC,0.034 ± 0.024
3,GGCAACAC,0.3658 ± 0.00072
4,TCCGTACA,-0.205 ± 0.035
5,GACTACAA,-0.152 ± 0.053
6,ACGAGCGA,0.0819 ± 0.019
7,ATCTCGAC,-0.00861 ± 0.033
8,CGCAGATA,-0.0294 ± 0.04
9,GAATGGCA,0.0832 ± 0.081
10,CAGGAGGA,-0.0587 ± 0.0051
11,AAATTTAC,-0.00563 ± 0.15
12,GAAAAACC,0.139 ± 0.038
13,CTCGGTGC,-0.0827 ± 0.037
14,CGCACTGC,0.104 ± 0.0094
15,ACGCAGGG,-0.0816 ± 0.033
16,AAGCGGGG,-0.276 ± 0.091
17,CGTTTAAG,-0.11 ± 0.0043
18,AGCTCAGC,-0.134 ± 0.069
19,AACCATCG,0.0525 ± 0.093
20,CACAGCTG,0.287 ± 0.039
21,CTCACGGC,0.103 ± 0.0051
22,ATTGTACC,-0.214 ± 0.0067

row,Sequence,PBM E-score of 8-mer
1,GGTACCGA,-0.0862 ± 0.038
2,TACGCCGA,-0.14 ± 0.027
3,AAATAGGG,-0.0176 ± 0.071
4,GGCACTTA,0.255 ± 0.051
5,CAGTTAGG,-0.0733 ± 0.022
6,AGTCTTAG,-0.08108 ± 0.00026
7,ACCTTGAG,0.0234 ± 0.011
8,GGGTAAAC,0.0516 ± 0.039
9,GAACAGTA,0.00048 ± 0.058
10,ACCAGGGT,0.057 ± 0.067
11,CAGAATGG,-0.0564 ± 0.0011
12,CCGGCCCC,-0.303 ± 0.012
13,GTTATACA,0.0337 ± 0.053
14,AACTGTAC,-0.117 ± 0.088
15,GTGAATCA,0.141 ± 0.0059
16,AAATGTGT,0.435 ± 0.0081
17,AGACGTCT,-0.229 ± 0.058
18,AGCGAATA,0.0354 ± 0.019
19,CTGATGTA,-0.178 ± 0.016
20,TCAATGCA,-0.22 ± 0.069
